Assay results from patent US20200129582A1, “NOVEL PEPTIDES AND PEPTIDOMIMETICS” (UNIVERSITY OF AUCKLAND, priority 2016, published 2020).

Experiments:
[1] = biological target: T1, Connexin43 protein (hemichannels of hCMVEC cells) (Homo sapiens, UniProt P17302); format: cell-based; conditions: FIG. 6; for ATP release, % of the injury control, extracellular loop sequence in combination with Peptide5: loop sequence mixed with Peptide5 at 1:1 ratio (100 μM), 2 hours
T1 construct: endogenous in cells; host or cells: hCMVEC (human cerebral microvascular endothelial cells)
Method: (§1) Peptide5 interacting site on the Connexin43 protein was determined using a competition assay. Extracellular loop sequences (Auspep, Australia) were dissolved in miliQ H2O were at a stock concentration of 1 mM […]. Extracellular loop sequences were mixed with the native Peptide5 at 1:1 ratio (100 μM), which was left for 1 hour at room temperature prior to the experiment to allow competitive binding to occur. Following 1-hour incubation, extracellular loop sequence and peptide5 mixture was dissolved in injury solution and exposed to hCMVEC cells for 2 hours using the ischaemia-reperfusion model described above. Extracellular medium was then collected for ATP measurement.
as §1, with “interaction sites” for “interacting site”

[2] = biological target: T2, hemichannel-mediated ATP release from hCMVEC cells (Homo sapiens, UniProt P17302); test: In vitro ischemia injury ATP release assay (single alanine substituted and truncated peptides); format: cell-based; conditions: 100 μM
T2 construct: endogenous in cells; host or cells: hCMVEC (human cerebral microvascular endothelial cells)
Method: The human cerebral endothelial cells (hCMVEC) were plated at a density of 0.025×10^6 cells per well in a collagen-coated 12-well plate (1 μg/cm^2) a day prior to the experiment. Cells were incubated in culture medium overnight. Hypoxic, acidic, ion-shifted Ringer injury solution that mimics ionic concentrations and acid-base shifts of the interstitial space in hypoxic-ischemic brains (Bondarenko and Chesler, 2001, […]) was used to trigger hemichannel opening. The injury solution contained (in mM): 38 NaCl, 13 NaHCO3, 3 Na-gluconate, 65 K-gluconate, 38 NMDG-Cl, 1 NaH2PO4, and 1.5 MgCl2. The injury solution was bubbled in 95% N2, 5% CO2 gas (20 L/min) for 5 minutes and pH adjusted to 6.6 before use. The standard ringer solution contained (in mM): 124 NaCl, 3 KCl, 26 NaHCO3, 26 NaHCO3, 1 NaH2PO4, 1.3 CaCl2, 1.5 MgCl2, and 10 Glucose, and pH adjusted to 7.4 before use (Bondarenko and Chesler, 2001). In the ischemia injury model, hCMVEC cells were incubated for 2 hours in 500 μL injury solution+/−Peptide5 (100 μM) (O'Carroll et al., 2008, Cell communication & adhesion 15:27-42; Danesh-Meyer et al., 2012, Brain: a journal of neurology 135:506-520; Davidson et al., 2012, Annals of neurology 71:121-132; Davidson et al., 2013, Experimental neurology 248:301-308; Davidson et al., 2014, PloS one 9:e96558; Davidson et al., 2015, J Cereb Blood Flow Metab), or +/−extracellular loop sequences (Table 5), or modified peptides (Table 2, 3) dissolved in injury solution (500 μL) with a final concentration of 100 μM. For negative control, hCMVEC cells were incubated only in 500 μL standard ringer solution for 2 hours. For positive control, hCMVEC cells were incubated only in 500 μL […] for 2 hours. All incubations were conducted at 37° C. in 95% O2 and 5% CO2. At the end of each experiment, samples were removed and immediately placed on ice. The concentration of ATP in the samples was determined using a Luciferin/luciferase bioluminescence reaction (ATP Determination Kit, Molecular Probes) and detected using a luminescence plate reader (VICTOR X, Perkin Elmer #2030-0010). Standard curves were generated in each experiment from an ATP standard (0 to 500 nM) to convert bioluminescence units to ATP concentration. […] The data is presented as mean±standard error relative to the injury or injury-reperfusion positive control. Statistically significant differences between samples were tested using one-way analysis of variance and Tukey's multiple comparisons test.
Peptides listed in table 5 and 2 were assessed using the ischemia injury model in hCMVEC cells as described above, and the medium was collected for ATP release measurement.
The human cerebral endothelial cells (hCMVEC) were plated at a density of 0.025×10^6 cells per well in a collagen-coated 12-well plate (1 μg/cm^2) a day prior to the experiment. Cells were incubated in culture medium overnight. Hypoxic, acidic, ion-shifted Ringer injury solution that mimics ionic concentrations and acid-base shifts of the interstitial space in hypoxic-ischemic brains (Bondarenko and Chesler, 2001) was used to trigger hemichannel opening. The injury solution contained (in mM): 38 NaCl, 13 NaHCO3, 3 Na-gluconate, 65 K-gluconate, 38 NMDG-Cl, 1 NaH2PO4, and 1.5 MgCl2. The injury solution was bubbled in 95% N2, 5% CO2 gas (20 L/min) for 5 minutes and pH adjusted to 6.6 before use. The standard ringer solution contained (in mM): 124 NaCl, 3 KCl, 26 NaHCO3, 26 NaHCO3, 1 NaH2PO4, 1.3 CaCl2, 1.5 MgCl2, and 10 Glucose, and pH adjusted to 7.4 before use (Bondarenko and Chesler, 2001).

[3] = biological target: Connexin43 protein (human, UniProt P17302 2-382); test: cell-based or functional assay

## A FRCNT QQPGC ENVCY D [EL1c]
[1]
  ATP release, % of the injury control, extracellular loop sequence in combination with Peptide5: 40.1±7.0%

## ADCFLSRPTEKT [Ala-1]
[2]; FIG. 3
  ATP release compared to injury control (in words): not significantly different

## CFLSRPTEKT [mod-1]
[2]; FIG. 4
  ATP release compared to injury control (in words): significantly different to the injury control
  ATP release compared to native Peptide5 (in words): not significantly different to native peptide5
[2]; FIG. 4, listed as Mod-1
  ATP release compared to injury control (in words): significantly reduced ATP release

## ESAWG DEQSA FRCNT QQ [EL1a]
[1]
  ATP release, % of the injury control, extracellular loop sequence in combination with Peptide5: 60.1±6.2%

## K RDPCP HQ [EL2b]
[1]
  ATP release, % of the injury control, extracellular loop sequence in combination with Peptide5: 75.5±7.4%

## LSRPTEKT [mod-2]
[2]; FIG. 4
  ATP release compared to injury control (in words): not significantly different to the injury control
  ATP release compared to native Peptide5 (in words): significantly greater ATP release

## PGC ENVCY DKSFP ISHVR [EL1b]
[1]; 1:1 with Peptide5 (100 μM)
  more effective by, in combination with Peptide5, compared to Peptide5 alone: 24.8±8.8%
[1]
  ATP release, % of the injury control, extracellular loop sequence in combination with Peptide5: 29.3±5.5%

## VACFLSRPTEKT [Ala-2]
[2]; FIG. 3
  ATP release compared to native Peptide5 (in words): significantly different to native Peptide5

## VDAFLSRPTEKT [Ala-3]
[2]; FIG. 3
  ATP release compared to native Peptide5 (in words): significantly different to native Peptide5

## VDCALSRPTEKT [Ala-4]
[2]; FIG. 3
  ATP release compared to injury control (in words): not significantly different to the injury control

## VDCFASRPTEKT [Ala-5]
[2]; FIG. 3
  ATP release compared to native Peptide5 (in words): significantly different to native Peptide5

## VDCFLARPTEKT [Ala-6]
[2]; FIG. 3
  ATP release compared to injury control (in words): not significantly different to the injury control
  ATP release compared to native Peptide5 (in words): no significant differences

## VDCFLS [mod-6]
[2]; FIG. 4
  ATP release compared to injury control (in words): not significantly different to the injury control
  ATP release compared to native Peptide5 (in words): significantly greater ATP release

## VDCFLSAPTEKT [Ala-7]
[2]; FIG. 3
  ATP release compared to native Peptide5 (in words): significantly different to native Peptide5

## VDCFLSRATEKT [Ala-8]
[2]; FIG. 3
  ATP release compared to native Peptide5 (in words): significantly different to native Peptide5

## VDCFLSRP [mod-5]
[2]; FIG. 4
  ATP release compared to injury control (in words): not significantly different to the injury control
  ATP release compared to native Peptide5 (in words): significantly greater ATP release

## VDCFLSRPTE [mod-4]
[2]; FIG. 4
  ATP release compared to injury control (in words): not significantly different to the injury control
  ATP release compared to native Peptide5 (in words): significantly greater ATP release

## VDCFLSRPTEAT [Ala-11]
[2]; FIG. 3
  ATP release compared to native Peptide5 (in words): significantly different to native Peptide5

B1: Modification 5 (peptide)
peptide: VDCFLSRP
[3]
  loss of ability to inhibit ATP release compared to native Peptide5: 59.6%

B2: Modification 1 (peptide)
peptide: CFLSRPTEKT
[3]
  ATP release from hCMVEC cells, % of injury control: 49.1 % of injury control

B3: Modification 6 (peptide)
peptide: VDCFLS
[3]
  loss of ability to inhibit ATP release compared to native Peptide5: 68.8%

B4: Modification 4 (peptide)
peptide: VDCFLSRPTE
[3]
  loss of ability to inhibit ATP release compared to native Peptide5: 43.9%

B5: Modification 2 (peptide)
peptide: LSRPTEKT
[3]
  loss of ability to inhibit ATP release compared to native Peptide5: 28.4%

B6: Modification 3 (peptide)
peptide: SRPTEKT
[3]
  loss of ability to inhibit ATP release compared to native Peptide5: 59.2%
